Measurements published in PubChem BioAssay AID485294 (National Center for Advancing Translational Sciences (NCATS), 2010).
About 150 (0.041%) of roughly 370,000 compounds were called active. This list was built around the results that the source calls inconclusive (neither active nor inactive); the mix of calls is not that of the screen. Calls follow the shape of the dose curve; as a rule, active = well fitted inhibition curve with a large enough effect; inconclusive = small, poorly fitted or top-dose-only effect; inactive = flat fitted curve, though single readings scatter. Potencies of inconclusive entries are left out as doubtful fits.

Biological target: Beta-lactamase (Escherichia coli (strain K12)) (UniProt P00811)
Test: qHTS Inhibitors of AmpC Beta-Lactamase (assay with detergent); also: nearly all actives have a fitted effect of over 25% in size;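 as to activity change, negative = inhibition: 0% = no-compound wells and -100% = no-enzyme wells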
Details: AmpC hydrolysis of nitrocefin, absorbance 480 nm, 0.01% Triton; activity change, negative = inhibition: at 114 µM (top of the series)
How it was run: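 20 mM phosphate pH 7.0 + 0.01% (detergent screen) or 0.0001% Triton X-100; 5.3 nM AmpC reagent; cpd preinc 15 min RT; nitrocefin (800 uM stock) to start; A480 q20 s × 4 min; Activity was normalised to no-enzyme and no-compound control wells.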
Potency is read from the fitted curve at half-maximal effect; tags tell the direction and shape of the fitted curve.

UniProt P00811, sequence (P00811 whole entry, looked up): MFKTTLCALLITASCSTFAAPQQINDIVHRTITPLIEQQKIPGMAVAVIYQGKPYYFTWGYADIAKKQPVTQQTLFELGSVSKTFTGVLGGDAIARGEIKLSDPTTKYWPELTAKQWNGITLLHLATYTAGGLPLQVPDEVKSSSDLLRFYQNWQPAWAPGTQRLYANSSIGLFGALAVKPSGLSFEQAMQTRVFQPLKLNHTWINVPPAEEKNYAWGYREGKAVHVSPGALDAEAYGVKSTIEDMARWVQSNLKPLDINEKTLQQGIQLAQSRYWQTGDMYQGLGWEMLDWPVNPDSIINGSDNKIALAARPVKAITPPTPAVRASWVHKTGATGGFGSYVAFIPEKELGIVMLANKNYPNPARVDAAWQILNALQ

Q: `Clc1ccc(OCc2nn[nH]n2)cc1` was tested. Which “activity change, negative = inhibition” value did it give?
A: inactive: -17.9%

Q: For `C=CCN=C1N[C@@H](c2ccc(Br)cc2)C(C(=O)OC)=C(C)N1Cc1ccccc1`, which Potency is on record?
A: inconclusive [inhibitor, full curve, poor fit]

Q: How did the Potency turn out when `COc1cc(NC(=O)CN2C(=O)NC(C)(CCC(C)C)C2=O)cc(OC)c1` (stereo unspecified) was run?
A: inconclusive [inhibitor, full curve, poor fit]

Q: How did the Potency turn out when `CCOc1ccc(-n2c(COc3ccc(C)cc3)nnc2SCC(N)=O)cc1` was run?
A: inconclusive [inhibitor, partial curve, poor fit]

Q: Which Potency does the source give for `CC(OC(=O)CNC(=O)c1ccc(Cl)c([N+](=O)[O-])c1)C(=O)NCc1ccco1` (stereo unspecified) here?
A: inconclusive [inhibitor, full curve, poor fit]

Q: With `O=C(O)COc1ccc(Br)cc1/C=N\Nc1ccccn1` as the compound, how does the Potency read?
A: inconclusive [inhibitor, single point]

Q: How did the Potency turn out when `Cc1cccc(NS(=O)(=O)c2ccc(C)c(C(=O)N(C)C3CCN(C)CC3)c2)c1` was run?
A: inconclusive [inhibitor, full curve, poor fit]

Q: With `CC(NC(=O)[C@H](C)NC(=O)c1ccco1)c1ccc(S(N)(=O)=O)cc1` (stereo partly specified) as the compound, how does the Potency read?
A: inconclusive [inhibitor, partial curve, poor fit]

Q: How did the Potency turn out when `Cc1ccc(SCC(=O)OCC(=O)NCC2CCCCC2)cc1C` was run?
A: inconclusive [inhibitor, partial curve, poor fit]

Q: With `CC1(C)CC(=O)C2=C(C1)NC(SCC(=O)Nc1ccccc1)=C(C#N)C2c1ccco1` (stereo unspecified) as the compound, how does the Potency read?
A: inconclusive [inhibitor, full curve, poor fit]

Q: For `CCCn1c(C2CC(=O)N(c3ccc(C)cc3)C2)nc2ccccc21` (stereo unspecified), which Potency is on record?
A: inconclusive [inhibitor, full curve, poor fit]

Q: `Cc1ccc2cn[nH]c2c1NC(N)=S` was tested. Which “activity change, negative = inhibition” value did it give?
A: inactive: -13.8%

Q: Which Potency does the source give for `COCCn1nnnc1C(C(C)C)N1CCN(C(=O)c2ccco2)CC1` (stereo unspecified) here?
A: inconclusive [inhibitor, single point]

Q: Which Potency does the source give for `O=C(NCCc1ccccc1)C(=O)c1c(-c2ccccc2)[nH]c2ccccc12` here?
A: inconclusive [inhibitor, full curve, poor fit]

Q: For `Cc1ccc2c(CC(=O)NCC(=O)Nc3c(C)cccc3C)coc2c1`, which Potency is on record?
A: inconclusive [inhibitor, partial curve]

Q: How did the Potency turn out when `CCOC(=O)CC1=C(C(=O)OCC)C2(C(=O)N1CC(=O)OC)C(C#N)=C(N)Oc1ccccc12` (stereo unspecified) was run?
A: inconclusive [inhibitor, partial curve, poor fit]
